In paper PMC4336329 (PLoS ONE, 2015):
Out of some 310,000 compounds screened, about 2,200 (0.71%) showed an effect of 50% or more. The effect is printed as a negative number. This is one part of the list.

Each molecule was assayed against human ether-à-go-go-related gene (hERG) potassium channel (human, UniProt Q12809) (assay: primary screen, population patch clamp on CHO cells stably expressing hERG).
Sequence of human ether-à-go-go-related gene (hERG) potassium channel (Q12809 whole entry, looked up): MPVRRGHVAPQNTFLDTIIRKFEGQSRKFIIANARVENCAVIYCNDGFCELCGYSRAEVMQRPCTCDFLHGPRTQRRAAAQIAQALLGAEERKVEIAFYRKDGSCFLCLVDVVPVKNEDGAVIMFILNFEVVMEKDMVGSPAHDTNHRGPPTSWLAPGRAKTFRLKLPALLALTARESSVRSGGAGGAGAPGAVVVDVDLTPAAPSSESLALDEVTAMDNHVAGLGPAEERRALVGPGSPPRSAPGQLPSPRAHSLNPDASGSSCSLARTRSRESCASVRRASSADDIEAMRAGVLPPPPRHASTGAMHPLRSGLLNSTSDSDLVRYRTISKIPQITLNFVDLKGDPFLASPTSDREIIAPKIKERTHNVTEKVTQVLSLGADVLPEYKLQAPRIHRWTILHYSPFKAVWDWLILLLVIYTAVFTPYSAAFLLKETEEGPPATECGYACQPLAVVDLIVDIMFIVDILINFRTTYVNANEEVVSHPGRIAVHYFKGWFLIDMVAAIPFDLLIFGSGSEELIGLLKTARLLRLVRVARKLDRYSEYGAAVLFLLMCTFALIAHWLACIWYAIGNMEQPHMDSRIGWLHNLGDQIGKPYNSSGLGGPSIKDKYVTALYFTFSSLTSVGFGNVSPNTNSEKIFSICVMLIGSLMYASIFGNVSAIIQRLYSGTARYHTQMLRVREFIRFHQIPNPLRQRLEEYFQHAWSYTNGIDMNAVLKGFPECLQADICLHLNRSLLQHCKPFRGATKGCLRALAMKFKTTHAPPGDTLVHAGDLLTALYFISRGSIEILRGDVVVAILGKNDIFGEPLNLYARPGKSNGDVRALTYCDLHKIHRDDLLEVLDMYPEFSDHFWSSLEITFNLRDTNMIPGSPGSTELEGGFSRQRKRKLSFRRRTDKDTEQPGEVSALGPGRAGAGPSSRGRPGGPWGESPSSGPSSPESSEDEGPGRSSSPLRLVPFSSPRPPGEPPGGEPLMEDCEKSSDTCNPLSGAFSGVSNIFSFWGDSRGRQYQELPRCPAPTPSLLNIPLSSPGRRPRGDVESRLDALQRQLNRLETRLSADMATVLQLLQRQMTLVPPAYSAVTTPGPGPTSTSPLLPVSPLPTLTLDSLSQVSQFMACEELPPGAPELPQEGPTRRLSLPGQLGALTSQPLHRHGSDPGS

SMILES	hERG current change (%, negative = inhibition) at 1uM [%]
CCOC(=O)C1(CC2CC2)CCN(Cc2ccc3cccc(F)c3n2)CC1	-11.8
CC(C)c1c(C(=O)N/N=C/c2cccs2)nnn1-c1nonc1N	17.7
CC12CC3CC(C)(C1)CC(C(=O)NCc1ccco1)(C3)C2	3.95
CC(O)c1c(-c2ccccc2)nn(C)c1Cl (stereo not drawn)	16.2
COc1ccc(Cl)cc1NC(=O)CNc1ccccc1F	7.66
COC1CCN(C(=O)c2ccc(OC3CCN(CCc4ccccc4)CC3)cc2)CC1	3.97
FC(F)(F)c1cc(-c2ccc3c(c2)OCO3)nc(NCc2ccco2)n1	9.63
CCc1nnc(NC(=O)C2CCCN2S(=O)(=O)c2ccc(F)cc2)s1 (stereo not drawn)	7.55
CCCCC(CC)Cn1c(N)c(C#N)c2nc3ccccc3nc21 (stereo not drawn)	10.6
O=C(Nc1nnc(C2CC2)s1)c1ccc(S(=O)(=O)c2ccccc2)cc1	17.8
CCOc1cc(C(=S)N2CCOCC2)ccc1OS(=O)(=O)c1ccccc1	5.08
COc1cccc(NC(=O)COC(=O)C2CC3CCCC(C2)C3=O)c1 (stereo not drawn)	11.2
CC(C)OCCCNC(=S)NNC(=O)c1ccc(Cl)c(Cl)c1	2.42
CN(c1ccccc1)S(=O)(=O)c1ccc(Cl)c(C(=O)Nc2nn[nH]n2)c1	30
CCCCNc1nc2ccccc2nc1Cl	10.7
Oc1ccc2ccccc2c1C=Nc1ccccc1	6.51
Cc1cc(C)n(-c2nc3ccccc3nc2N2CCN(S(=O)(=O)c3cccc(C#N)c3)CC2)n1	11.5
CCN(CC)C(=O)Cn1c(=O)n(Cc2ccccc2Cl)c2c1c(=O)n(C)c(=O)n2C	8.59
Cc1ccsc1/C=N/N1CCOCC1	16.1
CN(CCOc1ccccc1)C(=S)Nc1ccc(OC(F)F)cc1	-1.74
Cc1ccc(Cc2cnc(N)s2)o1	9.87
C=C(C)COc1ccc(-c2[nH]ncc2-c2ccccc2)c(O)c1	13.2
Cc1cc(C)c(C)c(S(=O)(=O)N2CCCCC2C(=O)O)c1C (stereo not drawn)	5.77

SMILES	hERG current change (%, negative = inhibition) at 1uM [%]
CCN(CC)CCN1C(=O)C(=O)/C(=C(/O)c2ccc(S(=O)(=O)N3CCOCC3)cc2)C1c1ccc(C(C)C)cc1 (stereo not drawn)	13.5
Cc1cc(C(=O)CSc2nnnn2C)c(C)n1C1CC1	13
Cc1ccc(N2C(=O)N(CC(=O)Nc3cc(Cl)ccc3C)C(=O)C2C)cc1 (stereo not drawn)	9.37
COC(=O)N1C(=O)[C@@](c2ccccc2)(C(C)C)N1C(=O)OC	14.6
CN(C)CCNc1ncnc2ccccc12.Cl	8.87
O=C(NNC(=O)c1cccs1)c1ccc(Cl)c([N+](=O)[O-])c1	5.54
Cn1cccc1CC(=O)N/N=C/c1ccc(Cl)c([N+](=O)[O-])c1	7.42
Cc1ccc(-c2nn(CC(=O)NN3CCOCC3)c(=O)c3ccccc23)cc1	9.85
CSCCC(NC(=O)c1cccc(C)c1)C(=O)OCC(=O)NC(=O)c1cccn1C (stereo not drawn)	7.19
O=C(Nc1cccc(Br)c1)C1CCCC1	20.4
CCSC1=N/C(=C\C=C2/Oc3ccccc3N2CC)C(=O)S1	18.1
COc1ccc(N2CC(C(=O)Nc3nc4ccc(OC)cc4s3)CC2=O)cc1 (stereo not drawn)	6.71
Cc1ccc(C(OC(=O)c2ccco2)C(=O)NC(C)(C)C)cc1 (stereo not drawn)	11.9
Cc1ccc(S(=O)(=O)N2CCOCC2)cc1NC(=O)CSc1cccc[n+]1[O-]	-0.851
Cc1cccc(C)c1NC(=O)c1cccc(COc2cc(Cl)ccc2Cl)c1	12.4
CCCCNC(=O)[C@]1(C)CCC[C@@]2(C)C3CC[C@@]4(C)C[C@]3(CCC21)CC4=O (stereo partly drawn)	7.77
COc1ccc(C2Cc3ccccc3C(=O)O2)cc1 (stereo not drawn)	2.11
CCOC(=O)Cc1csc(NC(=O)c2ccc(Cl)nc2)n1	23
COc1ccc(OCCCC(=O)OC(C)C(=O)Nc2ccc(S(N)(=O)=O)cc2)cc1 (stereo not drawn)	1.11
CCN(CC)C(=O)C(=O)N/N=C/c1cccs1	22.6
COCCOC(=O)c1c(C)n(C)c2ccc(OC(=O)c3ccccc3F)cc12	-4.23
O=C(NNC(=S)Nc1ccccc1)c1cc(-c2cccnc2)nc2ccccc12	11.3
